Source: PMC4336329 (PLoS ONE, 2015)
Screen size: about 310,000 compounds; about 14,000 (4.5%) showed an effect of 50% or more. Effects have a minus sign here. This is one part of the list.

Molecular target: human ether-à-go-go-related gene (hERG) potassium channel (human, UniProt Q12809)
Experiment: primary screen, population patch clamp on CHO cells stably expressing hERG
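Also: peak tail current of the secondary pulse compared with the same well before compound.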

Chain of human ether-à-go-go-related gene (hERG) potassium channel (Q12809 whole entry, looked up): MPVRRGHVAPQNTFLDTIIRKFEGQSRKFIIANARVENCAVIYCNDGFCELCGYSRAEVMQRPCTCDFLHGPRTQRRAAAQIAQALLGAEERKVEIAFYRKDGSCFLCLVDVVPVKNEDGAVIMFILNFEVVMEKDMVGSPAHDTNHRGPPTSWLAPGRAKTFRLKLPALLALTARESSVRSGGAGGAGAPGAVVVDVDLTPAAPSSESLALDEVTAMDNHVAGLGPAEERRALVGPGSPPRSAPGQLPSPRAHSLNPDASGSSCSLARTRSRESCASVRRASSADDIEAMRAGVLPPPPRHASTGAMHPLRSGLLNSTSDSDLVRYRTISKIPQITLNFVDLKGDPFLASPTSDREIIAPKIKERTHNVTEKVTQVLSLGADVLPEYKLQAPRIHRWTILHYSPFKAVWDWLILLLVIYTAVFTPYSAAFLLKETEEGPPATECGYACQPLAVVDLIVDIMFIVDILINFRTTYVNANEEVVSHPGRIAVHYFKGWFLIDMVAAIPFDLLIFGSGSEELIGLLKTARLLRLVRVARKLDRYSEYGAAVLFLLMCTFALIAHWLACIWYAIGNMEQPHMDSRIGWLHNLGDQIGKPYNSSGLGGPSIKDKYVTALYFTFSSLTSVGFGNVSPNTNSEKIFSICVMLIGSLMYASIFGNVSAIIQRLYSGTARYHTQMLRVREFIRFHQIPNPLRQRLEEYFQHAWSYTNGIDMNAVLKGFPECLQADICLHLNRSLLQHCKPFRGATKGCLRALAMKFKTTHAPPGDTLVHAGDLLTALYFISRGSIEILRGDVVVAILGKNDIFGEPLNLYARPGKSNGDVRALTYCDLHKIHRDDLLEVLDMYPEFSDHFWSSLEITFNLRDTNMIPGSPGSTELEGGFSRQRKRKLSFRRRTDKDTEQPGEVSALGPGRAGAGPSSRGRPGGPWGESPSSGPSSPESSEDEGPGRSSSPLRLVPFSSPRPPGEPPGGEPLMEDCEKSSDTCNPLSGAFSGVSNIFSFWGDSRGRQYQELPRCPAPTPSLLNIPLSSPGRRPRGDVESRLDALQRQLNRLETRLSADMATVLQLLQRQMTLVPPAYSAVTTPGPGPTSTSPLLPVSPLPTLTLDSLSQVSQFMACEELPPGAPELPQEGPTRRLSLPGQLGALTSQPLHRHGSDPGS

| SMILES | hERG current change (%, negative = inhibition) at 10uM |
| --- | --- |
| CC(/C=C/c1ccccc1)=N/NC(=O)CNC(=O)c1ccc2c(c1)OCO2 | -6.79% |
| O=C(CN1C(=O)C(=O)N(Cc2ccco2)C1=O)c1c[nH]c2ccccc12 | 16.4% |
| O=C(O)CC(NC(=O)CCc1ccccc1)c1ccc(Cl)cc1 (stereo not drawn) | 11.7% |
| O=S(=O)(c1ccccc1)C1(S(=O)(=O)c2ccccc2)CCCC1 | -20.6% |
| Cn1c(=O)c2c(nc(CN3CCN(CCO)CC3)n2CCc2ccccc2)n(C)c1=O | 10.3% |
| S=C(Nc1ccc(Br)cc1Cl)Nn1cnnc1 | 49.8% |
| Cc1cc(C)c(C)c(S(=O)(=O)NCC(=O)NCC2CCCCC2)c1C | 8.41% |
| Cc1ccn2c(NC3CCCCC3)c(-c3cccc(-c4cccc(Cl)c4)c3)nc2c1.O=C(O)C(F)(F)F | 8.7% |
| CC(NCCN(C)C)C(=O)C12CC3CC(CC(C3)C1)C2.Cl (stereo not drawn) | 13.6% |
| COc1ccc(S(=O)(=O)NC(N)=NCCc2ccccc2)cc1 | 9.5% |
| Cc1cc(C)n(C(=O)c2sc3cc(F)ccc3c2Cl)n1 | -3.95% |
| O=C(/C=C/c1ccco1)NC(=S)Nc1ccccn1 | -3.42% |
| COc1ccc(-c2c(C)c3ccc(O)cc3oc2=O)cc1 | 25.1% |
| CC(C)C(=O)NNC(=O)CC(=O)Nc1ccccc1C(=O)O | 14.8% |
| CNC(=S)NNC(=O)Cc1ccc(O)cc1 | -3.23% |
| CCN(CC)CCNC(=O)c1cc2c(-c3cccc(OC)c3)nn(C)c2s1 | -31.8% |
| CCCCOc1ccc(C(=O)NCc2ccco2)cc1 | -5.56% |
| N#Cc1nc(COc2ccc(Br)cc2)oc1NCCCn1ccnc1 | -63.2% |
| COCCCN=CC1=C(O)CC(C)(C)CC1=O | -6.15% |
| CC1CCCCC1NC(=O)c1cc2ccccc2o1 (stereo not drawn) | -38.9% |
| Cc1cc(NC(=O)CN2C(=O)NC3(CCCCCC3)C2=O)ccc1Br | 8.49% |
| CC#CCCCC(=O)Nc1ccc(C(=O)O)cc1 | 1.36% |
| CCc1ccc(NC(=O)CSc2nnc(-c3ccco3)o2)cc1 | 2.62% |

| SMILES | hERG current change (%, negative = inhibition) at 10uM |
| --- | --- |
| Fc1ccc(Br)cc1C1C=C(c2cccnc2)Nc2ncnn21 (stereo not drawn) | -34.2% |
| O=C1CC2(CCCCC2)Oc2ccc(OCC(=O)N3CCOCC3)cc21 | 3.3% |
| Nc1c(C(=O)Nc2ccc3c(c2)OCCO3)nnn1Cc1ccccc1Cl | -10.5% |
| COc1ccc(C(CC(=O)O)NC(=O)OC(C)(C)C)cc1 (stereo not drawn) | 9.15% |
| CCC(c1nnnn1Cc1ccc2c(c1)OCO2)N1CCN(CC)CC1.Cl (stereo not drawn) | -4.38% |
| CC(OC(=O)c1cccc(Cl)c1)C(=O)NC1CCCCC1C (stereo not drawn) | 7.42% |
| CCCOc1cccc(C2C(C(=O)c3cccs3)=C(O)C(=O)N2Cc2cccnc2)c1 (stereo not drawn) | -0.761% |
| CCOCCCNC(=O)CN1C(=O)/C(=C/c2ccccc2)Sc2ccccc21 | -0.186% |
| COc1ccc(OC)c(NC(=O)c2ccc3c(c2)OCO3)c1 | 19.7% |
| N#CCCN(C(=O)COC(=O)c1cc(S(=O)(=O)N2CCOCC2)ccc1Cl)c1ccc(F)cc1 | -47.3% |
| CC1(C)CC(=O)C(/C=N/c2ccccn2)=C(O)C1 | 8.94% |
| C/C(=N\Nc1nccnc1Cl)c1ccc(F)cc1 | -4.07% |
| CCc1ccc(C(C)NC(=O)c2ccc(F)cc2)cc1 (stereo not drawn) | -4.66% |
| CCc1ccc(C(C(=O)NCc2ccc(F)cc2)N(C(=O)c2csnn2)C2CC2)cc1 (stereo not drawn) | -35.1% |
| Cc1cc(C)nc(Nc2ncc(O)n2-c2ccc(C)c(C)c2)n1 | 15.2% |
| CCOC(=O)C1CCN(C(=O)c2cccc(Cl)c2)CC1 | -7.65% |
| COC(=O)c1ccc(C(=O)OC)c(NC(=S)N2CCN(c3cc(Cl)ccc3C)CC2)c1 | -1.97% |
| COc1cccc(CNC(=O)c2cccnc2Sc2ccc(C)cc2C)c1 | -3.27% |
| O=C(COc1ccc(Cl)cc1Br)N1CCN(c2ccccc2)CC1 | 3.78% |
| CCOc1ccc(OCc2ccc(C(=O)Nc3cccnc3)o2)cc1 | -38.6% |
| COc1cccc2[nH]c(C(=O)NCCCN3CCCC3=O)cc12 | -27% |
| CCOC(=O)Cn1c2ccc(C)cc2c2nc(C)sc21 | 1.32% |
| COc1cccc(C(=O)Nc2ccc3[nH]ncc3c2)c1OC | 1.17% |

| SMILES | hERG current change (%, negative = inhibition) at 10uM |
| --- | --- |
| O=C1CCC(C(=O)N2CCCC2)CN1CCc1cccc(F)c1 (stereo not drawn) | 4.37% |
| CCOC(=O)C1=C(C)NC(=S)NC1c1cc(C)sc1C (stereo not drawn) | 1.19% |
| CC1(c2ccc3c(c2)OCCO3)NC(=O)N(CC(=O)Nc2ccccc2)C1=O (stereo not drawn) | -0.659% |
| O=C(O)COc1cccc2nsnc12 | 4.42% |
| CC(=O)c1cccc(N(CC(=O)NCC2CCCO2)C(=O)CCC(=O)Nc2cc(C)on2)c1 (stereo not drawn) | 7.89% |
| CSCC[C@H](NC(=O)C1CCN(C(=O)[C@H](Cc2ccccc2)NS(=O)(=O)c2ccc(C)cc2)CC1)C(=O)O | 14.7% |
| COc1cccc2cc(C(C)N(CCCN3CCOCC3)C(=S)Nc3c(C)cccc3C)oc12 (stereo not drawn) | -17.7% |
| COc1ccc2cc(C(=O)N3CCN(c4ccccc4OC)CC3)[nH]c2c1 | 6.01% |
| Cc1nc2ccccn2c1C(=O)N=Nc1c(O)n(CCC(C)C)c2ccccc12 | -5.4% |
| Cc1ccc(CNC(=O)CN2C(=O)COc3ccc(C)cc32)cc1 | -5.06% |
| COc1ccc(CNC(=O)COC(=O)Cc2ccsc2)cc1 | 9.59% |
| Cc1ccc(C(C2=C(O)CC(C)(C)CC2=O)C2C(=O)CC(C)(C)CC2=O)o1 (stereo not drawn) | 14.6% |
| COCCn1c(-c2ccc(Cl)cc2)cnc1SCC(=O)NCCc1ccc(OC)c(OC)c1 | -48.4% |
| Cc1[nH]c2ccc(C(=O)N3CCN(c4ccccc4Cl)CC3)cc2c1C | 6.54% |
| Cc1ccc(C(=O)O/N=C(\N)c2ccccn2)c(C)c1 | -3.86% |
| COCCCNc1oc(-c2ccccc2Cl)nc1C#N | -3.84% |
| O=C(Cn1cc(C(=O)c2ccco2)c2ccccc21)NCc1ccco1 | -23.8% |
| O=C(O)COc1ccc(-c2nccc(-c3ccccn3)n2)cc1 | -1.02% |
| COC(=O)c1ccccc1NC(=O)c1cc(C2CC2)on1 | 2.52% |
| Cc1cc(C)nc(SCc2cc(=O)c(OC(=O)c3ccc(Cl)c([N+](=O)[O-])c3)co2)n1 | 3.68% |
| Cc1cc(N(C)C)c(C#N)c(N2CCOCC2)n1 | 17% |
| COc1ccc(-c2cc(C(=O)Nc3c(C)n(C)n(-c4ccccc4)c3=O)no2)cc1OC | 26.1% |
| Cc1cccc(NC(=O)c2ccc(Cl)c(S(=O)(=O)N3CCc4ccccc43)c2)n1 | 3.93% |

| SMILES | hERG current change (%, negative = inhibition) at 10uM |
| --- | --- |
| COc1ccc(CCN(C)C(=O)CSc2nnnn2C)cc1OC | 26.3% |
| O=S(=O)(c1ccc(Cl)s1)N1CCC(Cc2ccccc2)CC1 | -5.12% |
| CC(=O)N1c2ccc(S(=O)(=O)N3CCCC3C(=O)NCc3ccccc3Cl)cc2CC1C (stereo not drawn) | -40% |
| CCc1cccc(CC)c1NC(=O)c1cc(CN2C(=O)c3ccccc3C2=O)ccc1OC | -28.5% |
| O=C(Nc1ccccn1)NC(C(F)(F)F)C(F)(F)F | 12.1% |
| O=C(NCCCN1CCCC1=O)c1ccc(Cl)c(Cl)c1 | 5.91% |
| COc1ccccc1C/C(N)=N/OC(=O)c1ccc(C)c([N+](=O)[O-])c1 | -6.78% |
| Cc1c(C)[n+](=O)c2c(n1[O-])CCCCC2 | 6.1% |
| c1ccc2c(c1)nc(Nc1ccc(N3CCCCC3)cc1)c1nncn12 | -13.8% |
| O=C(O)CC1NC(=S)N(c2ccccc2)C1=O (stereo not drawn) | 3.9% |
| CCOc1ccc(Cl)cc1S(=O)(=O)N1CCC(C(=O)NCc2cccnc2)CC1 | -19.1% |
| Cc1ccccc1CS(=O)(=O)CCC(=O)NCCCN1CCN(c2ccccc2F)CC1 | -59.3% |
| O=C(NCCCN1CCOCC1)C(=O)NCC1OCCN1S(=O)(=O)c1cc(F)ccc1F (stereo not drawn) | 1.21% |
| CCOc1cccc(Oc2ccc(C(F)(F)F)cn2)c1 | -45.1% |
| CCN1c2nc3ccccn3c(=O)c2CC2(C(=O)N(C)C(=O)N(C)C2=O)C1C (stereo not drawn) | 2.38% |
| CC(C)c1ccc(OCC(=O)N2CCCN(C)CC2)cc1 | -14.9% |
| CCC(=O)N1c2ccc(S(=O)(=O)NCCc3ccc(C)cc3)cc2CC1C (stereo not drawn) | -1.96% |
| Nc1ccc(-c2ncc(-c3ccccc3)o2)cc1 | 12.6% |
| COc1ccc(N2CC(C(=O)N[C@@H](C)C(=O)NC3CCCC3)CC2=O)cc1 (stereo partly drawn) | 15.7% |
| CN(C(=O)CSc1nc(O)cc(=O)n1-c1ccccc1F)c1ccccc1 | 12.1% |
| Fc1ccc(Sc2cc(Cl)c(-c3ccccc3)nn2)cc1 | -34.1% |
